Some of the results follow. The list includes weakly bound sequences.

In this test the target is T1, MBP-FoxP3dN (UniProt Q99JB6).
T1 sequence: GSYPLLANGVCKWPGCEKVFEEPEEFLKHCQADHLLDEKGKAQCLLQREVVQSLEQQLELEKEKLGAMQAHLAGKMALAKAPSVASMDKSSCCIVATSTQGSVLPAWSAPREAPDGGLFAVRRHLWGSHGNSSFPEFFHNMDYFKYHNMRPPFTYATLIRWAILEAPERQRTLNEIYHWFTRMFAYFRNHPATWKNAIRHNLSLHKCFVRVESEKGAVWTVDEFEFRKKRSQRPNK
As to the kind of experiment: PD-seq (MBP pull-down with sequencing). The following applies: 20 mM Tris-HCl pH 7.5, 100 mM NaCl, 1.5 mM MgCl2, 0.4 uM protein, 0.1 uM dsDNA library, 30 min, room temperature, amylose pull-down; high values mean tight binding; double strand, one strand shown.
“GATGATTGTTCTCCCAGCTGATGAATTGCAGACTTCGAGTAAACAAATTTTCCTAATCTTTCTGTTCAAGCGCCATCTAC”: the binding signal (RPM ratio (pull-down/input)) stood at 0.742. Next, “GATGATTGTTCTCCCAGCTGATGAATTATCCGGCTCGAGTAAACAAATTTTCCTAATCTTTCTGTTCAAGCGCCATCTAC”: 0.196; “GATGATTGTTCTCCCAGCTGATGAATTGGATCTATCGAGTAAACAAATTTTCCTAATCTTTCTGTTCAAGCGCCATCTAC”: 0.344. In the case of “GATGATTGTTCTCCCAGCTGATGAATTTCGGGCCTCGAGTAAACAAATTTTCCTAATCTTTCTGTTCAAGCGCCATCTAC” it was 0.404; in that of “GATGATTGTTCTCCCAGCTGATGAATTGTATGAATCGAGTAAACAAATTTTCCTAATCTTTCTGTTCAAGCGCCATCTAC”, 0.556. In the case of “GATGATTGTTCTCCCAGCTGATGAATTGGAGCTGTCGAGTAAACAAATTTTCCTAATCTTTCTGTTCAAGCGCCATCTAC” it was 0.312; in that of “GATGATTGTTCTCCCAGCTGATGAATTAAGCCTCTCGAGTAAACAAATTTTCCTAATCTTTCTGTTCAAGCGCCATCTAC”, 5.69. Consider “GATGATTGTTCTCCCAGCTGATGAATTACAGAACTCGAGTAAACAAATTTTCCTAATCTTTCTGTTCAAGCGCCATCTAC”, for which the binding signal (RPM ratio (pull-down/input)) is 0.283. Next, “GATGATTGTTCTCCCAGCTGATGAATTGTGCGAGTCGAGTAAACAAATTTTCCTAATCTTTCTGTTCAAGCGCCATCTAC”: 1.74; “GATGATTGTTCTCCCAGCTGATGAATTGTTATAGTCGAGTAAACAAATTTTCCTAATCTTTCTGTTCAAGCGCCATCTAC”: 0.971; “GATGATTGTTCTCCCAGCTGATGAATTCCTTACATCGAGTAAACAAATTTTCCTAATCTTTCTGTTCAAGCGCCATCTAC”: 0.309. Next, “GATGATTGTTCTCCCAGCTGATGAATTACTAGCCTCGAGTAAACAAATTTTCCTAATCTTTCTGTTCAAGCGCCATCTAC”: 0.45; “GATGATTGTTCTCCCAGCTGATGAATTCCGGAATTCGAGTAAACAAATTTTCCTAATCTTTCTGTTCAAGCGCCATCTAC”: 0.499; “GATGATTGTTCTCCCAGCTGATGAATTTAGTCAATCGAGTAAACAAATTTTCCTAATCTTTCTGTTCAAGCGCCATCTAC”: 0.393. Next, “GATGATTGTTCTCCCAGCTGATGAATTTGGCGACTCGAGTAAACAAATTTTCCTAATCTTTCTGTTCAAGCGCCATCTAC”: 1.79; “GATGATTGTTCTCCCAGCTGATGAATTTAGGTAATCGAGTAAACAAATTTTCCTAATCTTTCTGTTCAAGCGCCATCTAC”: 0.861; “GATGATTGTTCTCCCAGCTGATGAATTGCGATGGTCGAGTAAACAAATTTTCCTAATCTTTCTGTTCAAGCGCCATCTAC”: 1.01. For “GATGATTGTTCTCCCAGCTGATGAATTTACTGTGTCGAGTAAACAAATTTTCCTAATCTTTCTGTTCAAGCGCCATCTAC”, the binding signal (RPM ratio (pull-down/input)) was 1.6. “GATGATTGTTCTCCCAGCTGATGAATTTGTACCTTCGAGTAAACAAATTTTCCTAATCTTTCTGTTCAAGCGCCATCTAC”: the binding signal (RPM ratio (pull-down/input)) is 2.49.

In the case of “GATGATTGTTCTCCCAGCTGATGAATTAAAAAGCTCGAGTAAACAAATTTTCCTAATCTTTCTGTTCAAGCGCCATCTAC”, the binding signal (RPM ratio (pull-down/input)) is 0.215.

As to “GATGATTGTTCTCCCAGCTGATGAATTTGAACCCTCGAGTAAACAAATTTTCCTAATCTTTCTGTTCAAGCGCCATCTAC”, the binding signal (RPM ratio (pull-down/input)) was 0.333. Next, “GATGATTGTTCTCCCAGCTGATGAATTATAACCCTCGAGTAAACAAATTTTCCTAATCTTTCTGTTCAAGCGCCATCTAC”: 0.348; “GATGATTGTTCTCCCAGCTGATGAATTTGGCGCTTCGAGTAAACAAATTTTCCTAATCTTTCTGTTCAAGCGCCATCTAC”: 0.966.

For the sequence “GATGATTGTTCTCCCAGCTGATGAATTACAATTTTCGAGTAAACAAATTTTCCTAATCTTTCTGTTCAAGCGCCATCTAC”, the binding signal (RPM ratio (pull-down/input)) worked out at 0.648.

For “GATGATTGTTCTCCCAGCTGATGAATTGCTCATGTCGAGTAAACAAATTTTCCTAATCTTTCTGTTCAAGCGCCATCTAC”, the binding signal (RPM ratio (pull-down/input)) is 0.617. In the case of “GATGATTGTTCTCCCAGCTGATGAATTCAACAACTCGAGTAAACAAATTTTCCTAATCTTTCTGTTCAAGCGCCATCTAC” it was 0.576. In the case of “GATGATTGTTCTCCCAGCTGATGAATTTTAGTTTTCGAGTAAACAAATTTTCCTAATCTTTCTGTTCAAGCGCCATCTAC” it was 0.82; in that of “GATGATTGTTCTCCCAGCTGATGAATTCTTATGCTCGAGTAAACAAATTTTCCTAATCTTTCTGTTCAAGCGCCATCTAC”, 0.443. Next, “GATGATTGTTCTCCCAGCTGATGAATTCTATTATTCGAGTAAACAAATTTTCCTAATCTTTCTGTTCAAGCGCCATCTAC”: 5; “GATGATTGTTCTCCCAGCTGATGAATTGATACCATCGAGTAAACAAATTTTCCTAATCTTTCTGTTCAAGCGCCATCTAC”: 1.06; “GATGATTGTTCTCCCAGCTGATGAATTGAGCTAATCGAGTAAACAAATTTTCCTAATCTTTCTGTTCAAGCGCCATCTAC”: 0.288. Take “GATGATTGTTCTCCCAGCTGATGAATTGCGTCGTTCGAGTAAACAAATTTTCCTAATCTTTCTGTTCAAGCGCCATCTAC”: the binding signal (RPM ratio (pull-down/input)) came to 1.4. In the case of “GATGATTGTTCTCCCAGCTGATGAATTAACACAGTCGAGTAAACAAATTTTCCTAATCTTTCTGTTCAAGCGCCATCTAC” it was 0.382; in that of “GATGATTGTTCTCCCAGCTGATGAATTCGAACGTTCGAGTAAACAAATTTTCCTAATCTTTCTGTTCAAGCGCCATCTAC”, 0.341; in that of “GATGATTGTTCTCCCAGCTGATGAATTACATTACTCGAGTAAACAAATTTTCCTAATCTTTCTGTTCAAGCGCCATCTAC”, 0.861. For “GATGATTGTTCTCCCAGCTGATGAATTCCATAAGTCGAGTAAACAAATTTTCCTAATCTTTCTGTTCAAGCGCCATCTAC”, the binding signal (RPM ratio (pull-down/input)) was 0.258. In the case of “GATGATTGTTCTCCCAGCTGATGAATTGCAATCTTCGAGTAAACAAATTTTCCTAATCTTTCTGTTCAAGCGCCATCTAC” it was 1.72; in that of “GATGATTGTTCTCCCAGCTGATGAATTTCCGTTCTCGAGTAAACAAATTTTCCTAATCTTTCTGTTCAAGCGCCATCTAC”, 0.504. In the case of “GATGATTGTTCTCCCAGCTGATGAATTCGACTAGTCGAGTAAACAAATTTTCCTAATCTTTCTGTTCAAGCGCCATCTAC” it was 0.306; in that of “GATGATTGTTCTCCCAGCTGATGAATTCTGGCGTTCGAGTAAACAAATTTTCCTAATCTTTCTGTTCAAGCGCCATCTAC”, 1.13. Regarding “GATGATTGTTCTCCCAGCTGATGAATTCTGGAATTCGAGTAAACAAATTTTCCTAATCTTTCTGTTCAAGCGCCATCTAC”, the binding signal (RPM ratio (pull-down/input)) turned out to be 0.579. In the case of “GATGATTGTTCTCCCAGCTGATGAATTCTCGAAATCGAGTAAACAAATTTTCCTAATCTTTCTGTTCAAGCGCCATCTAC” it was 0.241; in that of “GATGATTGTTCTCCCAGCTGATGAATTTAATTCTTCGAGTAAACAAATTTTCCTAATCTTTCTGTTCAAGCGCCATCTAC”, 0.786; in that of “GATGATTGTTCTCCCAGCTGATGAATTGAAACTATCGAGTAAACAAATTTTCCTAATCTTTCTGTTCAAGCGCCATCTAC”, 0.434. In the case of “GATGATTGTTCTCCCAGCTGATGAATTAGCTTCTTCGAGTAAACAAATTTTCCTAATCTTTCTGTTCAAGCGCCATCTAC” it was 0.901; in that of “GATGATTGTTCTCCCAGCTGATGAATTGGCAGTTTCGAGTAAACAAATTTTCCTAATCTTTCTGTTCAAGCGCCATCTAC”, 0.452. In the case of “GATGATTGTTCTCCCAGCTGATGAATTATGACGGTCGAGTAAACAAATTTTCCTAATCTTTCTGTTCAAGCGCCATCTAC” it was 0.372; in that of “GATGATTGTTCTCCCAGCTGATGAATTTTTTTTCTCGAGTAAACAAATTTTCCTAATCTTTCTGTTCAAGCGCCATCTAC”, 0.267. Consider “GATGATTGTTCTCCCAGCTGATGAATTGTGGTCTTCGAGTAAACAAATTTTCCTAATCTTTCTGTTCAAGCGCCATCTAC”, for which the binding signal (RPM ratio (pull-down/input)) worked out at 1.15. In the case of “GATGATTGTTCTCCCAGCTGATGAATTGATCTTGTCGAGTAAACAAATTTTCCTAATCTTTCTGTTCAAGCGCCATCTAC” it was 0.293; in that of “GATGATTGTTCTCCCAGCTGATGAATTTTAAACCTCGAGTAAACAAATTTTCCTAATCTTTCTGTTCAAGCGCCATCTAC”, 0.227. Next, “GATGATTGTTCTCCCAGCTGATGAATTCGAGGCGTCGAGTAAACAAATTTTCCTAATCTTTCTGTTCAAGCGCCATCTAC”: 0.633; “GATGATTGTTCTCCCAGCTGATGAATTGCCGTCATCGAGTAAACAAATTTTCCTAATCTTTCTGTTCAAGCGCCATCTAC”: 1.1. Next, “GATGATTGTTCTCCCAGCTGATGAATTAAAGCTGTCGAGTAAACAAATTTTCCTAATCTTTCTGTTCAAGCGCCATCTAC”: 0.47; “GATGATTGTTCTCCCAGCTGATGAATTCAAAATTTCGAGTAAACAAATTTTCCTAATCTTTCTGTTCAAGCGCCATCTAC”: 0.239. Consider “GATGATTGTTCTCCCAGCTGATGAATTATCTTCTTCGAGTAAACAAATTTTCCTAATCTTTCTGTTCAAGCGCCATCTAC”, for which the binding signal (RPM ratio (pull-down/input)) was found to be 0.337. Consider “GATGATTGTTCTCCCAGCTGATGAATTGCACGGATCGAGTAAACAAATTTTCCTAATCTTTCTGTTCAAGCGCCATCTAC”, for which the binding signal (RPM ratio (pull-down/input)) stood at 0.516. Next, “GATGATTGTTCTCCCAGCTGATGAATTATAATGATCGAGTAAACAAATTTTCCTAATCTTTCTGTTCAAGCGCCATCTAC”: 0.639; “GATGATTGTTCTCCCAGCTGATGAATTCTTTTGTTCGAGTAAACAAATTTTCCTAATCTTTCTGTTCAAGCGCCATCTAC”: 0.487. Take “GATGATTGTTCTCCCAGCTGATGAATTCATGACATCGAGTAAACAAATTTTCCTAATCTTTCTGTTCAAGCGCCATCTAC”: the binding signal (RPM ratio (pull-down/input)) was found to be 0.595. Next, “GATGATTGTTCTCCCAGCTGATGAATTCTTTGTGTCGAGTAAACAAATTTTCCTAATCTTTCTGTTCAAGCGCCATCTAC”: 0.573. In the case of “GATGATTGTTCTCCCAGCTGATGAATTACTCGGTTCGAGTAAACAAATTTTCCTAATCTTTCTGTTCAAGCGCCATCTAC” it was 0.264.

Regarding “GATGATTGTTCTCCCAGCTGATGAATTATTTCCCTCGAGTAAACAAATTTTCCTAATCTTTCTGTTCAAGCGCCATCTAC”, the binding signal (RPM ratio (pull-down/input)) was found to be 0.421.
